Laboratory results published in patent US9018252B2, “Stable compositions of dehydroascorbic acid” (priority 2010, dated 2015).

Conditions: human, in vivo, po, 5 min

## O=C1O[C@H]([C@@H](O)CO)C(=O)C1=O [DHAA, dehydroascorbic acid]
  amount absorbed into the tissues of the mouth and throat: approximately 14.8%

## O=C1O[C@H]([C@@H](O)CO)C(O)=C1O [AA, ascorbic acid]
  amount absorbed into the tissues of the mouth and throat: approximately 13.2%
